{"source": "PubChem BioAssay AID1508624", "about": "(National Center for Advancing Translational Sciences (NCATS), 2021)", "note": "About 120 (0.25%) of roughly 48,000 compounds were called active. Inconclusive results (about 4%) are left out. The call rests on the fitted dose curve; in most records, active means well fitted activation curve with a large enough effect; inconclusive means small, poorly fitted or top-dose-only effect, or another doubt; inactive means no such curve, though single readings can be large or run the other way. The list shows a part of the results."}
{"experiment": "Primary qHTS for Identification of Small Molecule Activators of Huntingtin-Antisense Promoter Activity; further: nearly all actives have a fitted effect of over 55% in size", "conditions": "HEK293 HTT-AS promoter firefly luciferase reporter, 24 h; series mostly up to 57.5 µM; activity change, positive = activation: at the top concentration", "outline": "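HEK293 Fluc reporter, 2,500 cells/well, 24 h pre-culture; cpds up to 57.5 uM final, 24 h 37 degrees C; Dual-Glo, 10 min RT; normalized vehicle = 0%, zero RLU = -100%.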"}
{"smiles": "O=C1CN(C(=O)Cc2ccc(F)cc2)C(c2ccccc2)c2cc(Br)ccc2N1", "note": "(configuration not stated)", "activity change, positive = activation": "inactive: -21.2%"}
{"smiles": "CC(=O)c1ccc(N2CCN(S(=O)(=O)c3c(C)nc4sc(C)cn4c3=O)CC2)cc1", "activity change, positive = activation": "inactive: -34%"}
{"smiles": "Cc1cccc(OCc2cc(=O)n3c(-c4ccccc4)csc3n2)c1C", "activity change, positive = activation": "inactive: 14.4%"}
{"smiles": "CCCn1c(SCc2nc(-c3ccccc3C)no2)nnc1-c1ccc(Cl)cc1", "activity change, positive = activation": "inactive: -21.3%"}
{"smiles": "CCOC(=O)c1[nH]c(C)c(CCC(=O)Nc2c(C)cc(C)cc2C)c1C", "activity change, positive = activation": "inactive: -33.6%"}
{"smiles": "Cc1cccc(N2CCN(C(=O)C3CCC(CNS(=O)(=O)c4ccc(Br)s4)CC3)CC2)c1C", "note": "(configuration not stated)", "activity change, positive = activation": "inactive: -22.6%"}
{"smiles": "CCc1nn(CC(=O)N2CCN(c3cccc(C)c3C)CC2)c(=O)c2cc3occc3n12", "activity change, positive = activation": "inactive: -22%"}
{"smiles": "COc1ccc(N2C(=O)CSC23C(=O)N(CC(=O)NC2CCCCC2)c2ccccc23)cc1", "note": "(configuration not stated)", "activity change, positive = activation": "inactive: -7.82%"}
{"smiles": "CC(C(=O)O)c1cccc(C(=O)c2ccccc2)c1", "note": "(configuration not stated)", "activity change, positive = activation": "inactive"}
{"smiles": "CCOc1ccc(S(=O)(=O)N2CCN(c3cc(Cl)ccc3Cl)CC2)c2ccccc12", "activity change, positive = activation": "inactive: -10.5%"}
{"smiles": "O=c1[nH]c2ccc(NCc3ccc(-c4cccc(Cl)c4)o3)cc2[nH]1", "activity change, positive = activation": "inactive: -29.5%"}
{"smiles": "CCc1ccccc1NC(=O)C(CC)Sc1ncnc2c1sc1ccccc12", "note": "(configuration not stated)", "activity change, positive = activation": "inactive: -5.69%"}
{"smiles": "Cc1ccc(NC(=O)CN2C(=O)C(c3ccc(F)cc3)=NC23CCCCC3)c(C)c1", "activity change, positive = activation": "inactive: -23.6%"}
{"smiles": "Cn1c(=O)c2c(SCC(=O)N3CCc4ccccc43)nc(-c3cccc(F)c3)nc2n(C)c1=O", "activity change, positive = activation": "inactive: -1.31%"}
{"smiles": "CCOc1ccccc1CNC(=O)C1CCN(S(=O)(=O)c2cccc3nonc23)CC1", "activity change, positive = activation": "inactive: -9.23%"}
{"smiles": "CCN(c1ccccc1)S(=O)(=O)c1cc(-c2onc(C)c2C)ccc1OC", "activity change, positive = activation": "inactive: -29.2%"}
{"smiles": "Cc1ccc(C)c(Cn2c(C(C)NC(=O)c3ccc(F)cc3)nc3ccccc32)c1", "note": "(configuration not stated)", "activity change, positive = activation": "inactive: -8.47%"}
{"smiles": "CCOc1ccccc1NC(=O)CCS(=O)(=O)c1cccc2nsnc12", "activity change, positive = activation": "inactive: -9.6%"}
{"smiles": "CCn1c(=O)c2sccc2n2c(CCCC(=O)N3CCN(c4ccc(OC)cc4)CC3)nnc12", "activity change, positive = activation": "inactive: 4.61%"}
{"smiles": "COc1cccc(N2C(=O)C(CC(=O)Nc3ccc(Cl)cc3)N(Cc3ccc4c(c3)OCO4)C2=O)c1", "note": "(configuration not stated)", "activity change, positive = activation": "inactive: 0%"}
{"smiles": "CCc1cccc(NC(=O)c2nnn(Cc3ccc(SC)cc3)c2N)c1", "activity change, positive = activation": "inactive: -7.78%"}
{"smiles": "CCOCCCNC(=O)C(c1ccccc1)N(Cc1cccs1)C(=O)c1ccc(NC(C)=O)cc1", "note": "(configuration not stated)", "activity change, positive = activation": "inactive: -6.06%"}
{"smiles": "COc1ccc(N2CCN(C(=O)c3c(C)oc4ncnc(N5CCCCC5)c34)CC2)cc1", "activity change, positive = activation": "inactive: -27.1%"}
{"smiles": "Cc1cccc(N2CCN(C(=O)C3CCCN(S(=O)(=O)c4cccc5nsnc45)C3)CC2)c1C", "note": "(configuration not stated)", "activity change, positive = activation": "inactive: -9.8%"}
{"smiles": "O=C(O)Cc1ccc(OCCNC[C@H](O)c2ccccc2)cc1", "activity change, positive = activation": "inactive: -8.57%"}
{"smiles": "Cc1cccc(-c2noc(CCCC(=O)NCc3ccco3)n2)c1", "activity change, positive = activation": "inactive: -16.8%"}
{"smiles": "COCCn1c(CCC(=O)Nc2cc(C)ccc2C)nc2cccnc21", "activity change, positive = activation": "inactive: 0.968%"}
{"smiles": "CC(=O)Nc1ccc(/C=N/NC(N)=S)cc1", "activity change, positive = activation": "inactive: 3.86%"}
{"smiles": "COc1cccc(CNC(=O)c2cc3cccc4c3n2CC(C)S4)c1OC", "note": "(configuration not stated)", "activity change, positive = activation": "inactive: -34.6%"}
{"smiles": "COc1cc2c(=O)c(S(=O)(=O)c3ccc(F)cc3)cn(Cc3ccccc3C)c2cc1OC", "activity change, positive = activation": "inactive: -32.2%"}
{"smiles": "Cc1ccc(-c2noc(-c3ccc(N4CCC(C)CC4)c([N+](=O)[O-])c3)n2)cc1", "activity change, positive = activation": "inactive: -1.18%"}
{"smiles": "Cc1ccc(-n2cc(-c3ccccc3)c3c(NC4CCCC4)ncnc32)cc1", "activity change, positive = activation": "inactive: -9.27%"}
{"smiles": "Cc1cccc(N(C)C(=O)CN2C(=O)COc3ccc(S(=O)(=O)N4CCCCCC4)cc32)c1", "activity change, positive = activation": "inactive: -23.6%"}
{"smiles": "Cn1c(CNC(=O)CSc2n[nH]c(-c3ccccc3Cl)n2)nc2ccccc21", "activity change, positive = activation": "inactive: 0.637%"}
{"smiles": "COc1cc(OC)c(OC)cc1CNCCSc1nnnn1-c1ccccc1", "activity change, positive = activation": "inactive: -11%"}
{"smiles": "CCN(Cc1ccccc1)C(=O)C1CCN(c2ncnc3c2nc2n3CCCCC2)CC1", "activity change, positive = activation": "inactive: -20.3%"}
{"smiles": "O=C(Nc1ccc(Cl)cc1F)c1oc(=O)c2ccccc2c1-c1ccccc1", "activity change, positive = activation": "inactive: -22.6%"}
{"smiles": "O=C(Cc1ccccc1)N(Cc1cccnc1)c1nc2c(F)cccc2s1", "activity change, positive = activation": "inactive: -27.7%"}
{"smiles": "O=C(NCc1ccc(Cl)cc1)c1ccc(CSCc2cccc(Cl)c2)o1", "activity change, positive = activation": "inactive: -22.8%"}
{"smiles": "Cc1ccccc1OC(=O)c1snnc1C", "activity change, positive = activation": "inactive: -5.39%"}
{"smiles": "CCOc1cccc2cc(-c3cn4c(n3)sc3cc(C)ccc34)c(=O)oc12", "activity change, positive = activation": "inactive: -0.867%"}
{"smiles": "Cc1ccnc(NS(=O)(=O)c2ccc(NC(=O)C(C)(C)Oc3ccc(Cl)cc3)cc2)n1", "activity change, positive = activation": "inactive: 4.59% [at 11.5 µM, percent change from vehicle, -100% = no light]"}
{"smiles": "COc1ccc(OCc2nc3ccccc3n2C(C)c2ccccc2)cc1", "note": "(configuration not stated)", "activity change, positive = activation": "inactive: -21.6%"}
{"smiles": "CCOc1ccccc1NC(=O)CSc1nc2c(c(=O)[nH]1)CCC2", "activity change, positive = activation": "inactive: -19.9%"}
{"smiles": "Nc1nc(Nc2cccc(C(F)(F)F)c2)sc1C(=O)c1ccccc1", "activity change, positive = activation": "inactive: 1.08%"}
{"smiles": "Cc1cc(C)c2c(CC(=O)Nc3ccc(S(=O)(=O)N4CCCC(C)C4)cc3)coc2c1", "note": "(configuration not stated)", "activity change, positive = activation": "inactive: -22.6%"}
{"smiles": "OCCn1cc(-c2ccc3c(c2)CCC3=NO)c(-c2ccncc2)n1", "activity change, positive = activation": "inactive: -34.4%"}
{"smiles": "CCOc1cc(C2Nc3ccccc3-c3nnc(SCc4ccccc4)nc3O2)ccc1OC", "note": "(configuration not stated)", "activity change, positive = activation": "inactive: 0.608%"}
{"smiles": "Cc1cc(Br)ccc1NC(=O)C(Cc1ccccc1)NS(=O)(=O)c1ccc(Br)s1", "note": "(configuration not stated)", "activity change, positive = activation": "inactive: -26.9%"}
{"smiles": "CCC(C(=O)Nc1ccc(C(=O)OC)cc1)n1nc(-c2ccc(C)cc2)c2c(c1=O)CCCC2", "note": "(configuration not stated)", "activity change, positive = activation": "inactive: -38%"}
{"smiles": "COc1ccccc1CN1CCNC(=O)C1=O", "activity change, positive = activation": "inactive: 3.1%"}
{"smiles": "COc1ccc(N(Cc2nnc3n2CCCCC3)C(=O)Nc2cccc(C)c2)cc1Cl", "activity change, positive = activation": "inactive: -9.02%"}
{"smiles": "CCn1c(=N)n(CC(O)COc2ccccc2)c2ccccc21", "note": "(configuration not stated)", "activity change, positive = activation": "inactive: -9.79%"}
{"smiles": "Cn1c(=O)c2cc(C(=O)NC3CCCCCC3)sc2c2ccccc21", "activity change, positive = activation": "inactive: -51.5%"}
{"smiles": "O=C(Cn1ncc2c3ccccc3n(Cc3ccccc3)c2c1=O)NC1CCCCCC1", "activity change, positive = activation": "inactive: -9.2%"}
{"smiles": "COc1ccccc1NC(=O)Cn1c(=O)n(-c2cccc(C)c2)c(=O)c2c1c1cc(C)ccc1n2C", "activity change, positive = activation": "inactive: -7.5%"}
{"smiles": "COc1ccc(NC(=O)C(CC(C)C)NC(=O)C2CCCCC2)cc1", "note": "(configuration not stated)", "activity change, positive = activation": "inactive: -11.1%"}
{"smiles": "COc1ccc(-c2cnc(C)o2)cc1S(=O)(=O)Nc1ccc(F)cc1F", "activity change, positive = activation": "inactive: -7.52%"}
{"smiles": "COc1cc(OC)c(NC(=O)c2cn(C3CCCC3)c(=O)c3c2c2ccccc2n3C)cc1Cl", "activity change, positive = activation": "inactive: -6.56%"}
{"smiles": "COc1cc2c(cc1OC)C(COc1ccc(F)cc1)N(C(=O)c1cccc(F)c1)CC2", "note": "(configuration not stated)", "activity change, positive = activation": "inactive: -25.8%"}
{"smiles": "CN(C)CCCNC(=O)C(=O)NCC(c1ccc2c(c1)OCO2)N1CCOCC1", "note": "(configuration not stated)", "activity change, positive = activation": "inactive: 1.09%"}
{"smiles": "Cc1nc2nc(SCC(=O)Nc3ccccc3Cl)nn2c(C)c1Cc1ccccc1", "activity change, positive = activation": "inactive: -23.7%"}
